Experimental data from the supplement of paper PMC10126150.
Values marked as one replicate rest on one cluster of the flow cell; about a third of the high ones do not repeat.

test system: ATP; assay: switch fluorescence ratio, 500 uM ATP over buffer (Cy3 cluster intensity, sum of 5 cycles each) (fold (ratio)); higher = stronger signal-on switching upon ATP binding; sequences stand for … in TCGTCGGCAGCGTCAGATGTGTATAAGAGACAGTTTTTTTTTTTTTTTTTTTTTTTTT…TC; conditions: aptamer strand: ATP DNA aptamer (quencher-CACCTGGGGGAGTATTGCGGAGGAAGG + anchor), 100 nM annealed; ATP concentration: 500 uM; one replicate
How it was run: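 For every switch-domain sequence, the fluorescence ratio is the mean of per-cluster values, each being summed target-cycle Cy3 intensity over summed buffer-cycle Cy3 intensity. Clusters outside 100-1000 RFU were excluded. On a modified Illumina MiSeq flow-cell, the Cy3-labelled switching-strand clusters were annealed to 100 nM quencher-labelled ATP aptamer, imaged in selection buffer and then after 15 min with 500 uM ATP at 22 °C. Five such cycles were run, with NaOH stripping and re-annealing between them.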
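Further: ATP exposure 15 min at 22 °C before imaging.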

| Sequence | switch fluorescence ratio |
| --- | --- |
| GTGTCCTAAA | 0.995 |
| TGCTATTCCT | 1.01 |
| CAGGGTTACC | 1 |
| CCTTGAGGCG | 1.05 |
| GGATGCGCTT | 1.02 |
| GCTGGTGCTG | 1.01 |
| GCACATGTCG | 0.938 |
| TCTTGCGTG | 0.987 |
| TTGCTGGGCA | 0.985 |
| TTTCGTGC | 0.951 |
| ACCTATCTAG | 1.03 |
| TCTCTAAGGG | 0.978 |
| GATGAGGTCC | 0.984 |
| TATTTACTCA | 1.04 |
| TGGTCGGTGA | 0.959 |
| GGTGGAGTTG | 0.977 |
| TTGATTTGCG | 0.997 |
| CTGGTTTAAG | 0.981 |
| AGGAGCAAAT | 1.65 |
| GGTTACGTGT | 0.933 |
| CCTTCATTGT | 1.04 |
| AATCACGTA | 1.26 |
| CTAAAAATTT | 1.06 |

| Sequence | switch fluorescence ratio |
| --- | --- |
| CCGCGGCGG | 1.1 |
| CAGATATTGT | 0.974 |
| CTCGTTTTGG | 1.08 |
| CTAGCTTCCC | 1.38 |
| GCCGTGGCGA | 1.03 |
| TGTCAGGATG | 0.98 |
| GTGTTGATTA | 1.05 |
| TTCGATATTA | 1 |
| GACAGTAACC | 1.16 |
| TGGATTGGCT | 1.02 |
| CCACATAGGT | 1.02 |
| TAATTGTTAC | 0.996 |
| ACCCTACCAC | 1.38 |
| GACCGAGATG | 1.55 |
| GCTCACGGG | 1.05 |
| TATTTCTAA | 1.01 |
| TTGAATCCCT | 1.06 |
| AGTTAGAATT | 1.05 |
| GTGTTTTTTA | 0.972 |
| CGTGCACAGA | 0.994 |
| GAACTTCGCG | 1.2 |
| TATCCGCCCG | 1.2 |
| TAGGAGCCTG | 1.03 |

| Sequence | switch fluorescence ratio |
| --- | --- |
| CAAACACGAA | 1.02 |
| ATCGGATTTG | 1.01 |
| AAGTGAGAG | 1 |
| GTCGTTAGTG | 0.978 |
| TAACTGTATC | 1.17 |
| ATCATACTTT | 1.01 |
| TTATGCTTCA | 1.04 |
| GGGGGCTGAC | 1 |
| CGTAGAGCGT | 0.975 |
| ACAGGGAGCG | 0.961 |
| GTTAAAACTA | 1.03 |
| GAAGTTGCAG | 1.01 |
| TTTGGCGATG | 0.957 |
| CAAAGGGGTA | 1.02 |
| TTGCCTGTTA | 1.03 |
| TAAGAATCTC | 1.03 |
| CGTGAGTATA | 0.951 |
| GTCAGTGCAT | 0.984 |
| GTAAAGAGTC | 1.03 |
| TTGGACTCAT | 0.999 |
| ATGAGAATAA | 0.988 |
| GAAGTGGCGG | 0.993 |
| GCTTAATGCG | 1.02 |

| Sequence | switch fluorescence ratio |
| --- | --- |
| TATGTGTGGC | 1.05 |
| AGGGTTCATG | 1 |
| TCGGTAAAA | 0.959 |
| AGTGAATCAC | 0.969 |
| TTACCGAGGG | 1.26 |
| CGACGCCTAT | 3.66 |
| CTGTACGGGT | 0.998 |
| AGCTCGACTG | 1.01 |
| AAAGATTGAA | 0.967 |
| CATAATATGT | 1.05 |
| ACAGCGGGAG | 1.04 |
| CGGTCGACTG | 0.971 |
| GTGAGATTGG | 1 |
| TGGGTATGCT | 0.99 |
| GGCAGCTAAC | 1.5 |
| ACCAGGGG | 1.39 |
| CGCAGCTTTA | 2.53 |
| GGCCACTTAG | 1.01 |
| TATAAATTAT | 1.05 |
| AGCTAATAAC | 1.24 |
| TGTTGCGCAT | 1.06 |
| AGAAGTGGCA | 0.986 |
| GGAATTGT | 0.991 |

| Sequence | switch fluorescence ratio |
| --- | --- |
| ATCAATAACT | 1.02 |
| GCTTATGTGG | 0.922 |
| AACCCAGGG | 1.24 |
| TGCTAAAATA | 0.982 |
| GTGCCAAAGG | 1.01 |
| TTAGTAATTT | 1.13 |
| GCCGGGTAGA | 1.04 |
| TTGCAATCGC | 1.5 |
| TGGCGATGGT | 0.981 |
| CAGCAGGTGA | 2.24 |
| ATTAAACCCA | 0.984 |
| CTTAGTCGTC | 1.01 |
| TGGGGCTTG | 1 |
| TAGAGTGGTG | 0.971 |
| TACAATTCAG | 0.976 |
| ACCGAAAGTT | 0.986 |
| ACACGGACCT | 1.55 |
| AGATAGGAGG | 0.933 |
| ATACGCATGG | 1.6 |
| ACGATGACCA | 0.996 |
| TGGCGAGAGA | 1.04 |
| TTTCAAGGTG | 1.33 |
| GCCCATGG | 1.11 |

| Sequence | switch fluorescence ratio |
| --- | --- |
| ACTCGCCCAA | 1.51 |
| CTATACCAG | 0.959 |
| ATGTGCGCGA | 1.09 |
| TGCTGCAGCG | 0.993 |
| GGTTTTGTC | 1.04 |
| CCAGCATCGA | 1.13 |
| GTTAATATGG | 1.02 |
| TAGCCACGTT | 0.939 |
| AGCCCCAGT | 1.01 |
| AGGTGTGAAG | 0.947 |
| AAGATACACG | 1.08 |
| AATCTACCCG | 1.03 |
| ATTTGCCACA | 1.03 |
| AAGTCTGGCG | 0.981 |
| CTTGATACAA | 0.951 |
| AATTTGCCA | 1 |
| TATCTTGCTA | 0.987 |
| GGTAATCCTA | 0.998 |
| AGTATGGAAC | 1.03 |
| TTTCTTAAC | 0.97 |
| GATCATGGGC | 1.02 |
| TTTCTATTGT | 0.992 |
| ATGACGAGCC | 1.21 |

| Sequence | switch fluorescence ratio |
| --- | --- |
| ATACTCTAGC | 1.08 |
| TCTTACGCAT | 1.27 |
| AAGGTGCAAC | 0.967 |
| ATGTGGTGTG | 1 |
| CAAACAAGTA | 1.06 |
| CTCAACGACT | 1 |
| TTCTTCCTGG | 1.04 |
| CGCTCGGTAC | 1.56 |
| GGGATAAGAC | 1.04 |
| TCAAGGAGTG | 0.997 |
| CGGTTCCGTT | 0.981 |
| TAGCTGGATT | 1.01 |
| GGATACACAG | 1.03 |
| TCCAGGTTT | 1.4 |
| GGAACCGAGG | 1.06 |
| GGGCCCGCTT | 0.979 |
| CCCGGGGACG | 0.994 |
| GGTATATACG | 1 |
| ATGGTTTGCG | 1.02 |
| GCAACACTAC | 2.57 |
